In all, about 4,500 sequences were measured (“median log2 fold change of GCK-ALFA target abundance (FLAG IP / Myc IP barcode read proportion)”: median about 0.078, lowest 2% from about -0.6 on). The list shows a part of the results.

The chains are these.
B1: GBRAP_128_3437 (protein)
chain: AQEELLQEALELLDEIVESDVETAAELAKQLAELLGQLDEESRDEVVEYFEEKAKELTEEKLEAVADALREQVPQLDADTANAVNEMIVILGEQILELEE
B2: GBRAP_95_7039 (protein)
chain: DDDVLLAESLAEVLETAVDLGDLERARRLARELLEALLRLPPDAVRLDLSPEAVELIIRVARETLPRERAIEALEKLAAALTDPEARALAEAALAELRAE
B3: GBRAP_125_2967 (protein)
chain: ATEQDLADLRTLALALGLSEEEAEEAAELARASSIRGTLYAIFAGLGYEELAELVAEITEEDARAVLRATAAYIAAHPDATPDEVVAHATALAKEALAAR
B4: GBRAP_11_2879 (protein)
chain: KKEKLLEIAKLAEELAELIEELLEKGVDDEELREEAEKKLKELTELVEKHANEALKKLAEILKEEWQKALEDEENAEKYLQEALTIARVLSGDALLEAEE
B5: GBRAP_160_4574 (protein)
chain: SEEMKKLKEEIKEITEEAKEFIEGQSREEQIAIVKVAMGDILLLLDENPLVSDETEDKAAAIGDALIAYIEAHPDLTAEEIKELLEKATEEIIKLIEKEE
B6: GBRAP_160_4809 (protein)
chain: MEKAEKLLEEARKDLLETAEASKDLPIEDRARLLEAEGYTSILDFEEELNISDETEEKLAQVVDDLVATLLANPDLSDEEVLALVEEAAEKMKEIVKEEV
B7: GBRAP_160_4756 (protein)
chain: KEELKKLKEEIEEIFEEYLEILKEVPASEAPTVVRGAMGEVLMLVMSSDAASDELEEKIGEILDKAEAEVKANADKPVEYHIGVLEEARKEIIELIEKEI
B8: GBRAP_83_6893 (protein)
chain: ETITVVGNDAESVAAAIDAAIDLSTEEGYEVVLELIVTPADLPTLEAGLDRLAAAGVKVDLEIVVVARTREEAEAAAARLRAHAEASGAARSVEVETEVV
B9: GBRAP_160_4864 (protein)
chain: SEKLEEALKILEEARKRALEVIEEAPASDRAAFAESEMGAAILELVEKGLITDELEDKLMEIADRLRAELRANADASVEEHKALVEKAFEEAMETVKKMS
B10: GBRAP_74_6525 (protein)
chain: DEKLLEELKKAAEAGDVEKAVELAREIIKTGSLEAIEKAAEILVEFVEKNIEKLTKEELELLSETLAELADKLMELGGKSEVVKKVAQAAVELEKKAEEL
B11: GBRAP_11_2627 (protein)
chain: KKEILEKMAELAERLAELLERLLEEGVDNEELRKEAEEVLEELTKLEKEYGDEADKKLVEIAREEWEKALEDEENAEEYLRRALAAARVLAGNYLLDIEE
B12: GBRAP_160_4721 (protein)
chain: EKKIEEFAKEALEELLEAVELSEGESREEARAIFEGAAGEVLMDAFEDPRFTDEMEDVVAEILDELVEELVANYDASLEEKKEIVKEKIEELKKELLKIA
B13: GBRAP_52_6209 (protein)
chain: MEEKARKLAEELYELMKAGDREGARKLAREIAETLDDEELEIFFKEFVELAKKARPEDHDLIFELAELIAEELLKEGRDEVLADDLLNSVAAALYENELK
B14: GBRAP_11_2913 (protein)
chain: KLENLKKIAELLEKLVETLKKLLEEGVDNEELFKKALELAEKALELIKENFDESDADLAQEAVRELKKAKEDPETAREHVERALAIARVLLGQALLEIEE
B15: GBRAP_52_6231 (protein)
chain: MEAEARARVEEMLALVRAGDLEGARALAREIAETYDDEELEVVIDALAALARAAPLEEAPLFEKAAEILAEVFEELGKDEVLIDLLEARVAAALYERELA
B16: GBRAP_184_5079 (protein)
chain: TTLERLIEAETDEELLAKVDAVLAEAAAQKADLVVLVDKPGLTVETVLEIIDRLGAAKKAGKVPRVTVGIDEEFTEEEIDIILKRADEEGVRVVLPIKDE
B17: GBRAP_160_4848 (protein)
chain: EEKKKKIEEEFNEAREFVLSLIPEVSVEQLANAFDAEIGTVALELLEEGIINEEAEDVAIEKADEARAELLAAKDASPEELKELITEKVEEMIEEVKKLL
B18: GBRAP_11_2617 (protein)
chain: KKEALKKAAKLAKELAKVVKKLIEEGVDNEELRAEAEKLLKELKKLTEEELDEAHKTEVEVVEELWAEAKADPENALAYAEQLLAALRVLEGNYLLDIEE
B19: GBRAP_9_7169 (protein)
chain: DEEKKKKIKEIVLEAFEEILKVVPEEKRPIVEEKKKEAEKRLEELLKDPNTTVEEFKEEAKKLLRDLVEELKKAVDPTTAAAVEAIALTAEEEIDEVLEE
B20: GBRAP_83_6983 (protein)
chain: KEKITVVFPGDKIEDAPKIVEDLTKEEGYEVDVEILATREDIPKVKEMVKEIAELGLEVNIDILLFGATEEEAKELKEELEKIAKEAGVNIKVNVEVEEE
B21: GBRAP_80_6809 (protein)
chain: AEEELAAALAEIEAIDPELAKRLKRIVELAKEMGVSLETLAEFAKAAAKLAKIDVEKAKELLEETEELLEEEKERGDTENAEAVLRVFAGQMLLEVEELE
B22: GBRAP_78_6576 (protein)
chain: EVEELIDEAIELLGKAGSLLSKIKTEEAQEILDLVIDAMDDLLEAEENGFDLELIEEALKKVEEALKKAKKIKTEEAKEIAKLLEEAKEKLEEAIKLLKK
B23: GBRAP_160_4599 (protein)
chain: SPETEKLLKELDEIVEETKKLIEGQSREEQLAIIRVGFGEILLELSLSPIVSDETEEKAAKIMDETIATIESNPDLTLEEIKALIDEALEKIKEAIKKDS
B24: GBRAP_11_2606 (protein)
chain: KKEKLKEAAKLAEELAKTVQQLLKEGVDDEKLLKEIEKLIKELRKLVKEELDEAHQRDVEVIEELWKEAKEDPENREFYLKQLQAAAEVLSGNYLLEIEE
B25: GBRAP_78_6647 (protein)
chain: EVEKLIDEALKHLDEAAKLARKLPEEERNELLAEITEASSYLLLSEEEGFDLKLLEEALKKLEEARKLVEKLDSPEAPAIKKELDKAIKLVKEAIKLVKA
B26: GBRAP_78_6641 (protein)
chain: KVEELLDKAIEHIRKARKLAKKLPEEVRNELLAELVEAESYILEAEENGFDLEKLEEAIKELEKALEIVEKSDHPEAPEIKEELEKAIKLLKEAVKLVKE
B27: GBRAP_128_3467 (protein)
chain: STEEAVAYARETMEAIEKANLEEARKLARELAERLLTLSLEEVEAVVEAIEEMLPKLSAEKLEILADVLAEARPQMTPEKAALVADVESDALLLAEELEE
B28: GBRAP_53_6428 (protein)
chain: SEEKIKELKKKIKELAEKATKADEEEAKKLIEEIVKLLEELKKAGAPDEEITKLVEEIARKLKEAGVSDSLLVELANGLAKMGLEEATAAVAEEIVEELE
B29: GBRAP_125_3085 (protein)
chain: AVAEALAAAGLILRAAGFSDEEVEEFRRLSADSSVKAVFNALAYLLLDEEEALKAEELSPEEALAVLRRVAARIEAHPDLTPEEVRALLAEEIDRALAAA

Chain of GABARAP, O95166 (O95166 whole entry, the tested form may be a part): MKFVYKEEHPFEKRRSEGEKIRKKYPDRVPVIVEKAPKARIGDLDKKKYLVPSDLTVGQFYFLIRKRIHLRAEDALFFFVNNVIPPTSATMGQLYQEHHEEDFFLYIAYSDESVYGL

The target in this assay is GABARAP, O95166. The experiment in a line: median log2 fold change of GCK-ALFA target abundance (FLAG IP / Myc IP barcode read proportion) (log2 ratio); each designed protein is fused to an ALFA-tag nanobody in HEK293 cells to bring the named protein to FLAG-tagged glucokinase (GCK); Myc marks an untargeted standard; higher = target protein stabilised (more abundant). Particulars: target protein: 3xFLAG-MCP-GCK-ALFA reporter; HEK293 landing pad (RPLP). In short, it runs like this:
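Sequencing of reverse-transcribed, amplified circular RNA barcodes from anti-FLAG and anti-Myc immunoprecipitates provided the readout for an ALFA-nanobody-fused binder library recombined into HEK293 landing-pad cells. Those cells were induced with 2 μg mL^−1 doxycycline, transfected with a plasmid expressing a FLAG-tagged target and a Myc-tagged standard, and lysed after 48 h. Target abundance is the per-binder median log2 ratio of FLAG to Myc barcode read proportions. Only barcodes at a proportion of ≥10^−7 in both replicates and binders with ≥3 barcodes per replicate were kept, with a 10^−6 pseudocount added before the two replicates were pooled.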
Consider B1, for which the “median log2 fold change” value was -0.0498.

For B2, the “median log2 fold change” value was 0.261. Consider B3, for which the “median log2 fold change” value was -0.219. Then B4, with 0.335. In the case of B5 it was -0.302; in that of B6, -0.35.

Turning to B7, the “median log2 fold change” value is -0.039. In the case of B8 it was 0.0822; in that of B9, 0.128; in that of B10, 0.284. B11: the “median log2 fold change” value amounted to 0.153. In the case of B12 it was -0.419. For the molecule B13, the “median log2 fold change” value was 0.0262. In the case of B14, the “median log2 fold change” value was 0.096. Then B15, with 0.225; and B16, with -0.178. Then B17, with 0.0244. In the case of B18, the “median log2 fold change” value is 0.18. In the case of B19, the “median log2 fold change” value is 0.202.

Regarding B20, the “median log2 fold change” value was found to be 0.157. Consider B21, for which the “median log2 fold change” value was determined as 0.0503. On to B22, for which the “median log2 fold change” value is -0.0785. On to B23, for which the “median log2 fold change” value amounted to 0.0702. Regarding B24, the “median log2 fold change” value amounted to 0.264. B25: the “median log2 fold change” value came out at 0.36. In the case of B26 it was 0.191; in that of B27, -0.0714; in that of B28, 0.303. In the case of B29 it was 0.0772.

These data come from the supplement of paper PMC12632987.
